Some of the results follow.
Test system: HepG2
Experiment: cytotoxicity call (relative viability < 0.9)
Details: 10 µM

Row | SMILES | cytotoxicity call
1 | C[C@H](CO)N1C[C@H](C)[C@@H](CN(C)Cc2ccccc2)Oc2c(NC(=O)CCCCCC(=O)Nc3ccccc3N)cccc2C1=O | inactive
2 | C=CCNC(N)=S | inactive
3 | C[C@H](CO)N1C[C@H](C)[C@H](CN(C)C(=O)Cc2ccncc2)Oc2ncc(C#CC3(O)CCCC3)cc2C1=O | inactive
4 | COc1ccc(S(=O)(=O)N(C)C[C@@H]2Oc3c(NC(=O)C4CCOCC4)cccc3C(=O)N([C@H](C)CO)C[C@@H]2C)cc1 | inactive
5 | C[N+]1(C)CCC(OC(=O)C(O)(c2ccccc2)C2CCCC2)C1.[Br-] (centres undefined) | inactive
6 | COc1ccc(NC(=O)N(C)C[C@H]2OCc3ccccc3-c3c(n(C)c4ccccc34)C(=O)N([C@@H](C)CO)C[C@H]2C)cc1 | inactive
7 | C[C@@H]1CCCCO[C@H](CN(C)C(=O)Nc2ccc(F)cc2)[C@H](C)CN([C@@H](C)CO)C(=O)c2cc(NS(=O)(=O)c3ccc(Cl)cc3)ccc2O1 | inactive
8 | COCC(=O)Nc1ccc2c(c1)C(=O)N(C)[C@H]1CC[C@H](CC(=O)NC3Cc4ccccc4C3)O[C@H]1CO2 | inactive
9 | CN1CCN(C(=O)C[C@H]2CC[C@H]3[C@H](COc4ccc(NC(=O)c5cscn5)cc4C(=O)N3C)O2)CC1 | inactive
10 | CO[C@@H]1CN(C)C(=O)c2cc(NC(=O)c3ccc(F)cc3)ccc2OC[C@H](C)N(C(=O)CN(C)C)C[C@@H]1C | inactive
11 | C[C@H]1CN([C@@H](C)CO)C(=O)c2cc(NC(=O)Cc3cn(C)c4ccccc34)ccc2O[C@@H]1CN(C)S(=O)(=O)c1cn(C)cn1 | inactive
12 | COc1ccc(NC(=O)N(C)C[C@@H]2Oc3ccc(NS(=O)(=O)c4c(C)noc4C)cc3C(=O)N([C@@H](C)CO)C[C@@H]2C)cc1 | active
13 | C[C@@H]1CN([C@H](C)CO)C(=O)Cc2cc(NS(=O)(=O)c3ccccc3)ccc2O[C@@H]1CN(C)Cc1ccncc1 | inactive
14 | CCCCCCc1ccc(O)cc1O | active
15 | C[C@H](CO)N1C[C@H](C)[C@@H](CN(C)C(=O)Cc2cccnc2)Oc2cc(C#Cc3ccccc3F)ccc2S1(=O)=O | inactive
16 | C[C@@H]1CN([C@H](C)CO)C(=O)c2cc(NC(=O)c3ccccc3)ccc2O[C@@H](C)CCCCO[C@H]1CN(C)Cc1ccc(Cl)c(Cl)c1 | active
17 | C[C@H]1CN([C@@H](C)CO)C(=O)c2cccc(NC(=O)C3CCOCC3)c2O[C@H]1CN(C)C(=O)Nc1ccc2c(c1)OCO2 | inactive
18 | CC(=O)Oc1cncc(C(=O)O)c1 | inactive
19 | O=c1c(O)c(-c2ccc(O)c(O)c2)oc2c(OC3OC(CO)C(O)C(O)C3O)c(O)cc(O)c12 (centres undefined) | inactive
20 | C[C@@H]1CN([C@@H](C)CO)C(=O)Cc2cc(NC(=O)CCCCCC(=O)Nc3ccccc3N)ccc2O[C@@H]1CN(C)Cc1ccc(-c2ccccc2)cc1 | active
21 | C[C@H](CO)N1C[C@H](C)[C@H](CN(C)C(=O)C2CCOCC2)Oc2ncc(/C=C/c3ccccc3)cc2C1=O | inactive
22 | C[C@@H]1CCCCO[C@@H](CN(C)CC2CCCCC2)[C@H](C)CN([C@H](C)CO)C(=O)c2cc(NC(=O)Nc3cccc4ccccc34)ccc2O1 | active
23 | COc1ccc(CN(C)C[C@@H]2OCCCC[C@H](C)Oc3ccc(NC(=O)c4ccncc4)cc3C(=O)N([C@@H](C)CO)C[C@H]2C)cc1 | inactive
24 | Cc1cc(O)c2c(c1)C(=O)c1c(c(O)cc(O)c1-c1c(O)cc(O)c3c1C(=O)c1cc(C)cc(O)c1C3=O)C2=O | inactive
25 | C[C@@H]1CN([C@@H](C)CO)C(=O)c2cc(NC(=O)C3CCCCC3)ccc2O[C@H]1CN(C)S(=O)(=O)c1cn(C)cn1 | inactive
26 | Cc1ccc(S(=O)(=O)N(C)C[C@H]2Oc3ccc(NS(C)(=O)=O)cc3C(=O)N([C@H](C)CO)C[C@H]2C)cc1 | inactive
27 | CCc1cnc2c(c1OC)c(=O)n(CCN1CCOCC1)c(=O)n2C | inactive
28 | C[C@H](NC(=O)C[C@H]1C[C@H]2c3cc(NC(=O)Nc4ccc(C(F)(F)F)cc4)ccc3O[C@H]2[C@@H](CO)O1)c1ccccc1 | inactive
29 | O=C(NO)c1cccc(C(=O)N/N=C/[C@H](O)[C@@H](O)[C@H](O)CO)c1 | inactive

From the antibiotic and cytotoxicity screens of Wong et al. (2023)
